Measured values: the supplement of paper PMC4967469
Lines with a small IC50 respond at low doses; a fit beyond the top or the lowest dose is shown as a bound at that dose. AUC sums up the same curve from the lowest dose to the 256-fold higher top dose; values near 1 show little effect.

The cell lines below were run with CC[C@H](Nc1ncnc2[nH]cnc12)c1nc2cccc(F)c2c(=O)n1-c1ccccc1 [CAL-101] (assay: Viability of human cancer cell lines after 72 h of drug (GDSC screen)).
Protocol: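 Human cancer cell lines in 384-well plates, medium with 10% serum, drug for 72 h over a 256-fold dose range (nine 2-fold or five 4-fold steps up to the top dose). Adherent lines were fixed and stained with the nucleic acid dye Syto60, suspension lines read with resazurin; signal relative to control wells, capped at 0 and 100%. One two-parameter sigmoid per drug and line, fitted in a mixed model over all curves with the slope shared within a line.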
With “ChaGo-K-1 (non-small cell lung carcinoma, adherent, top dose 20 µM)” the AUC was 0.96 and the IC50 was greater than 20 µM.
“D-247MG (glioma, adherent, top dose 20 µM)” was tested, and the AUC was 0.921 and the IC50 was greater than 20 µM.
Work on “D-263MG (glioma, adherent, top dose 20 µM)” yielded an AUC of 0.982 and an IC50 greater than 20 µM.
“D-283MED (medulloblastoma, adherent, top dose 20 µM)” showed an AUC of 0.985 and an IC50 greater than 20 µM.
Work on “D-336MG (glioma, adherent, top dose 20 µM)” yielded an AUC of 0.876 and an IC50 greater than 20 µM.
“D-392MG (glioma, adherent, top dose 20 µM)” gave an AUC of 0.95 and an IC50 greater than 20 µM.
For “D-423MG (glioma, adherent, top dose 20 µM)”, the AUC was 0.733 and the IC50 was 6.82 µM.
“D-502MG (glioma, adherent, top dose 20 µM)” showed an AUC of 0.938 and an IC50 greater than 20 µM.
“D-542MG (glioma, adherent, top dose 20 µM)” showed an AUC of 0.98 and an IC50 greater than 20 µM.
Work on “D-566MG (glioma, adherent, top dose 20 µM)” yielded an AUC of 0.85 and an IC50 of 14.8 µM.
In the case of “DAN-G (pancreas, adherent, top dose 20 µM)”, the AUC is reported as 0.982 and the IC50 is reported as greater than 20 µM.
“DB (B-cell lymphoma, suspension, top dose 20 µM)” showed an AUC of 0.976 and an IC50 greater than 20 µM.
Cell Line “DBTRG-05MG (glioma, adherent, top dose 20 µM)” has an AUC of 0.933 and an IC50 greater than 20 µM.
“DEL (lymphoid neoplasm, suspension, top dose 20 µM)” was tested, and the AUC was 0.969 and the IC50 was greater than 20 µM.
Cell Line “DG-75 (Burkitt lymphoma, suspension, top dose 20 µM)” has an AUC of 0.986 and an IC50 greater than 20 µM.
For DJM-1 (skin, adherent, top dose 20 µM), the AUC was 0.986 and the IC50 was greater than 20 µM.
Work on “DK-MG (glioma, adherent, top dose 20 µM)” yielded an AUC of 0.968 and an IC50 greater than 20 µM.
“DMS-53 (small cell lung carcinoma, adherent, top dose 20 µM)” was tested, and the AUC was 0.986 and the IC50 was greater than 20 µM.
In the case of “DMS-79 (small cell lung carcinoma, suspension, top dose 20 µM)”, the AUC is reported as 0.961 and the IC50 is reported as greater than 20 µM.
Cell Line “DMS-114 (small cell lung carcinoma, adherent, top dose 20 µM)” has an AUC of 0.983 and an IC50 greater than 20 µM.
With “DMS-273 (small cell lung carcinoma, adherent, top dose 20 µM)” the AUC was 0.943 and the IC50 was greater than 20 µM.
With “DND-41 (T-cell leukaemia, suspension, top dose 20 µM)” the AUC was 0.908 and the IC50 was greater than 20 µM.
With “DOK (head and neck, adherent, top dose 20 µM)” the AUC was 0.878 and the IC50 was greater than 20 µM.
DOV13 (ovary, adherent, top dose 20 µM) gave an AUC of 0.979 and an IC50 greater than 20 µM.
For “DSH1 (bladder, adherent, top dose 20 µM)”, the AUC was 0.982 and the IC50 was greater than 20 µM.
“DU-145 (prostate, adherent, top dose 20 µM)” gave an AUC of 0.985 and an IC50 greater than 20 µM.
Work on “DU-4475 (breast, suspension, top dose 20 µM)” yielded an AUC of 0.989 and an IC50 greater than 20 µM.
“Daoy (medulloblastoma, adherent, top dose 20 µM)” gave an AUC of 0.951 and an IC50 greater than 20 µM.
“Daudi (Burkitt lymphoma, suspension, top dose 20 µM)” gave an AUC of 0.989 and an IC50 greater than 20 µM.
Work on “Detroit562 (head and neck, adherent, top dose 20 µM)” yielded an AUC of 0.977 and an IC50 greater than 20 µM.
With “DoTc2-4510 (cervix, adherent, top dose 20 µM)” the AUC was 0.981 and the IC50 was greater than 20 µM.
“EB2 (Burkitt lymphoma, suspension, top dose 20 µM)” gave an AUC of 0.311 and an IC50 of 0.393 µM.
“EB-3 (Burkitt lymphoma, suspension, top dose 20 µM)” was tested, and the AUC was 0.877 and the IC50 was greater than 20 µM.
“EBC-1 (lung squamous cell carcinoma, adherent, top dose 20 µM)” was tested, and the AUC was 0.952 and the IC50 was greater than 20 µM.
For “EC-GI-10 (oesophagus, adherent, top dose 20 µM)”, the AUC was 0.989 and the IC50 was greater than 20 µM.
In the case of “ECC10 (stomach, suspension, top dose 20 µM)”, the AUC is reported as 0.982 and the IC50 is reported as greater than 20 µM.
“EFM-19 (breast, adherent, top dose 20 µM)” showed an AUC of 0.938 and an IC50 greater than 20 µM.
With “EFM-192A (breast, adherent, top dose 20 µM)” the AUC was 0.981 and the IC50 was greater than 20 µM.
“EFO-21 (ovary, adherent, top dose 20 µM)” was tested, and the AUC was 0.859 and the IC50 was greater than 20 µM.
With “EFO-27 (ovary, adherent, top dose 20 µM)” the AUC was 0.948 and the IC50 was greater than 20 µM.
In the case of “EGI-1 (biliary tract, adherent, top dose 20 µM)”, the AUC is reported as 0.928 and the IC50 is reported as greater than 20 µM.
With “EJM (lymphoid neoplasm, semi-adherent, top dose 20 µM)” the AUC was 0.977 and the IC50 was greater than 20 µM.
Cell Line “EKVX (lung adenocarcinoma, adherent, top dose 20 µM)” has an AUC of 0.948 and an IC50 greater than 20 µM.
Work on “EM-2 (chronic myeloid leukaemia, suspension, top dose 20 µM)” yielded an AUC of 0.921 and an IC50 greater than 20 µM.
In the case of “EMC-BAC-1 (lung adenocarcinoma, adherent, top dose 20 µM)”, the AUC is reported as 0.962 and the IC50 is reported as greater than 20 µM.
Work on “EMC-BAC-2 (lung adenocarcinoma, adherent, top dose 20 µM)” yielded an AUC of 0.951 and an IC50 greater than 20 µM.
In the case of “EN (endometrium, adherent, top dose 20 µM)”, the AUC is reported as 0.971 and the IC50 is reported as greater than 20 µM.
“EPLC-272H (lung squamous cell carcinoma, adherent, top dose 20 µM)” showed an AUC of 0.888 and an IC50 greater than 20 µM.
“ES1 (Ewing sarcoma, adherent, top dose 20 µM)” gave an AUC of 0.881 and an IC50 greater than 20 µM.
In the case of “ES3 (Ewing sarcoma, adherent, top dose 20 µM)”, the AUC is reported as 0.953 and the IC50 is reported as greater than 20 µM.
With “ES4 (Ewing sarcoma, adherent, top dose 20 µM)” the AUC was 0.898 and the IC50 was greater than 20 µM.
“ES5 (Ewing sarcoma, adherent, top dose 20 µM)” showed an AUC of 0.799 and an IC50 of 11.3 µM.
“ES6 (Ewing sarcoma, adherent, top dose 20 µM)” showed an AUC of 0.912 and an IC50 greater than 20 µM.
“ES7 (Ewing sarcoma, adherent, top dose 20 µM)” was tested, and the AUC was 0.542 and the IC50 was 1.63 µM.
“ES8 (Ewing sarcoma, adherent, top dose 20 µM)” was tested, and the AUC was 0.914 and the IC50 was greater than 20 µM.
Work on ES-2 (ovary, adherent, top dose 20 µM) yielded an AUC of 0.988 and an IC50 greater than 20 µM.
“ESO26 (oesophagus, adherent, top dose 20 µM)” gave an AUC of 0.982 and an IC50 greater than 20 µM.
“ESO51 (oesophagus, semi-adherent, top dose 20 µM)” gave an AUC of 0.965 and an IC50 greater than 20 µM.
“ESS-1 (endometrium, adherent, top dose 20 µM)” gave an AUC of 0.973 and an IC50 greater than 20 µM.
In the case of “ETK-1 (biliary tract, adherent, top dose 20 µM)”, the AUC is reported as 0.955 and the IC50 is reported as greater than 20 µM.
“EVSA-T (breast, adherent, top dose 20 µM)” gave an AUC of 0.884 and an IC50 of 16.3 µM.
“EW-1 (Ewing sarcoma, semi-adherent, top dose 20 µM)” was tested, and the AUC was 0.894 and the IC50 was greater than 20 µM.
“EW-3 (Ewing sarcoma, adherent, top dose 20 µM)” showed an AUC of 0.954 and an IC50 greater than 20 µM.
Work on “EW-7 (Ewing sarcoma, semi-adherent, top dose 20 µM)” yielded an AUC of 0.91 and an IC50 greater than 20 µM.
“EW-11 (Ewing sarcoma, adherent, top dose 20 µM)” showed an AUC of 0.875 and an IC50 greater than 20 µM.
With “EW-13 (Ewing sarcoma, suspension, top dose 20 µM)” the AUC was 0.86 and the IC50 was 19.8 µM.
With “EW-16 (Ewing sarcoma, adherent, top dose 20 µM)” the AUC was 0.951 and the IC50 was greater than 20 µM.
“EW-18 (Ewing sarcoma, suspension, top dose 20 µM)” gave an AUC of 0.893 and an IC50 greater than 20 µM.
With “EW-24 (Ewing sarcoma, semi-adherent, top dose 20 µM)” the AUC was 0.993 and the IC50 was greater than 20 µM.
In the case of “EoL-1-cell (haematopoietic neoplasm, suspension, top dose 20 µM)”, the AUC is reported as 0.963 and the IC50 is reported as greater than 20 µM.
“FADU (head and neck, adherent, top dose 20 µM)” was tested, and the AUC was 0.986 and the IC50 was greater than 20 µM.
With “FLO-1 (oesophagus, adherent, top dose 20 µM)” the AUC was 0.902 and the IC50 was greater than 20 µM.
With “FTC-133 (thyroid, adherent, top dose 20 µM)” the AUC was 0.986 and the IC50 was greater than 20 µM.
“FU97 (stomach, adherent, top dose 20 µM)” gave an AUC of 0.924 and an IC50 greater than 20 µM.
In the case of “FU-OV-1 (ovary, adherent, top dose 20 µM)”, the AUC is reported as 0.858 and the IC50 is reported as greater than 20 µM.
For “Farage (B-cell lymphoma, suspension, top dose 20 µM)”, the AUC was 0.496 and the IC50 was 1.22 µM.
With “G-292 Clone A141B1 (osteosarcoma, adherent, top dose 20 µM)” the AUC was 0.896 and the IC50 was greater than 20 µM.
In the case of “G-361 (melanoma, adherent, top dose 20 µM)”, the AUC is reported as 0.959 and the IC50 is reported as greater than 20 µM.
With “G-401 (kidney, adherent, top dose 20 µM)” the AUC was 0.928 and the IC50 was greater than 20 µM.
“G-402 (soft tissue, adherent, top dose 20 µM)” was tested, and the AUC was 0.873 and the IC50 was greater than 20 µM.
With “G-MEL (melanoma, adherent, top dose 20 µM)” the AUC was 0.955 and the IC50 was greater than 20 µM.
Cell Line “GAK (melanoma, adherent, top dose 20 µM)” has an AUC of 0.989 and an IC50 greater than 20 µM.
GAMG (glioma, adherent, top dose 20 µM) gave an AUC of 0.906 and an IC50 greater than 20 µM.
